According to the antibiotic and cytotoxicity screens of Wong et al. (2023):
The other results are listed elsewhere or left out.

Experiments:
[1] = system: HSkMC (human skeletal muscle cells); experiment: cytotoxicity call (relative viability < 0.9); details: 10 µM
[2] = system: HepG2; experiment: cytotoxicity call (relative viability < 0.9); details: 10 µM
[3] = system: S. aureus RN4220; experiment: growth inhibition call (relative growth <= 0.2); details: 50 µM

CO[C@@H]1CN(C)C(=O)c2ccc(NC(=O)Nc3c(C)noc3C)cc2OC[C@@H](C)N(C(=O)Nc2cccc(Cl)c2)C[C@H]1C
cytotoxicity call [1]: inactive | cytotoxicity call [2]: inactive | growth inhibition call [3]: inactive

Nc1ccc2oc3c(c2c1)CCCC3
cytotoxicity call [1]: inactive | cytotoxicity call [2]: inactive | growth inhibition call [3]: inactive

COc1ccc(C#Cc2cnc3c(c2)C(=O)N([C@@H](C)CO)C[C@@H](C)[C@@H](CN(C)C(=O)CN(C)C)O3)cc1
cytotoxicity call [1]: inactive | cytotoxicity call [2]: inactive | growth inhibition call [3]: inactive

COc1ccc(NC(=O)Nc2ccc3c(c2)C(=O)N([C@@H](C)CO)C[C@@H](C)[C@H](CN(C)Cc2ccc4c(c2)OCO4)OCCCC[C@@H](C)O3)cc1
cytotoxicity call [1]: inactive | cytotoxicity call [2]: inactive | growth inhibition call [3]: inactive

O=S(=O)(N1CCOCC1)n1nnc2ccccc21
cytotoxicity call [1]: inactive | cytotoxicity call [2]: inactive | growth inhibition call [3]: inactive

c1cc([C@@H]2CNCCN2)[nH]n1
cytotoxicity call [1]: inactive | cytotoxicity call [2]: inactive | growth inhibition call [3]: inactive

C[C@@H]1CN([C@@H](C)CO)S(=O)(=O)c2ccc(C#CCC3CCCC3)cc2O[C@@H]1CN(C)C(=O)CN(C)C
cytotoxicity call [1]: inactive | cytotoxicity call [2]: active | growth inhibition call [3]: inactive

CC(C)NC(=O)Nc1ccc2c(c1)C(=O)N([C@@H](C)CO)C[C@@H](C)[C@H](CN(C)C(=O)Nc1ccc3c(c1)OCO3)O2
cytotoxicity call [1]: inactive | cytotoxicity call [2]: inactive | growth inhibition call [3]: inactive

CCc1ccc(/C=C2\SC(=O)N(CCCCCCNC(=O)c3ccc(Nc4ccc([N+](=O)[O-])c5nonc45)cc3)C2=O)cc1
cytotoxicity call [1]: inactive | cytotoxicity call [2]: inactive | growth inhibition call [3]: inactive

C[C@@H]1CCCCO[C@@H](CN(C)C(=O)c2ccccc2)[C@@H](C)CN([C@@H](C)CO)C(=O)c2cc(NC(=O)Nc3ccc(F)cc3)ccc2O1
cytotoxicity call [1]: inactive | cytotoxicity call [2]: inactive | growth inhibition call [3]: inactive

Cc1noc(C)c1NC(=O)Nc1cccc2c1O[C@H](CN(C)Cc1ccc(-c3ccccc3)cc1)[C@H](C)CN([C@H](C)CO)C2=O
cytotoxicity call [1]: inactive | cytotoxicity call [2]: inactive | growth inhibition call [3]: inactive

O=C(O)c1cnc(N2CCCC2)nc1
cytotoxicity call [1]: inactive | cytotoxicity call [2]: inactive | growth inhibition call [3]: inactive

CN(C)CCN1C[C@@H]2CN(C(=O)c3cnc[nH]3)C[C@H]2C1=O
cytotoxicity call [1]: inactive | cytotoxicity call [2]: inactive | growth inhibition call [3]: inactive

O=C(NCc1ccc(S(=O)(=O)N2CCOCC2)s1)c1cccnc1C(=O)N1CCOCC1
cytotoxicity call [1]: inactive | cytotoxicity call [2]: inactive | growth inhibition call [3]: inactive

C[C@@H]1CN([C@H](C)CO)C(=O)c2cc(NC(=O)Nc3ccc(F)cc3)ccc2O[C@H]1CN(C)Cc1ccc(Oc2ccccc2)cc1
cytotoxicity call [1]: inactive | cytotoxicity call [2]: active | growth inhibition call [3]: inactive

C[C@@H]1CN([C@@H](C)CO)C(=O)c2cc(NC(=O)CCC(F)(F)F)ccc2O[C@@H](C)CCCCO[C@@H]1CN(C)CC1CCCCC1
cytotoxicity call [1]: inactive | cytotoxicity call [2]: inactive | growth inhibition call [3]: inactive

C=CCC[C@H](Cc1ccc(F)cc1)C(=O)OC[C@@H](Cc1c[nH]c2ccccc12)NC(=O)[C@H](CC=C)CC(=O)N[C@@H](CO)Cc1ccccc1
cytotoxicity call [1]: inactive | cytotoxicity call [2]: active | growth inhibition call [3]: inactive

CC(C)NC(=O)Nc1ccc2c(c1)C(=O)N([C@@H](C)CO)C[C@@H](C)[C@@H](CN(C)Cc1ccccc1)OCCCC[C@@H](C)O2
cytotoxicity call [1]: inactive | cytotoxicity call [2]: inactive | growth inhibition call [3]: inactive

C[C@H]1CN([C@@H](C)CO)S(=O)(=O)c2ccc(C#CC3(O)CCCC3)cc2O[C@@H]1CN(C)C(=O)Cc1ccncc1
cytotoxicity call [1]: inactive | cytotoxicity call [2]: inactive | growth inhibition call [3]: inactive

Cc1ccc(S(=O)(=O)Nc2ccc3c(c2)C(=O)N([C@@H](C)CO)C[C@@H](C)[C@H](CN(C)S(=O)(=O)c2ccc(C)cc2)OCCCC[C@H](C)O3)cc1
cytotoxicity call [1]: inactive | cytotoxicity call [2]: inactive | growth inhibition call [3]: inactive

C[C@H](CO)N1C[C@H](C)[C@@H](CN(C)S(C)(=O)=O)Oc2ccc(NS(=O)(=O)c3ccc(F)cc3)cc2CC1=O
cytotoxicity call [1]: inactive | cytotoxicity call [2]: inactive | growth inhibition call [3]: inactive

Cc1noc(C)c1S(=O)(=O)N(C)C[C@H]1OCCCC[C@H](C)Oc2ccc(NC(=O)Nc3cccc4ccccc34)cc2C(=O)N([C@@H](C)CO)C[C@@H]1C
cytotoxicity call [1]: inactive | cytotoxicity call [2]: inactive | growth inhibition call [3]: inactive

CCOC(=O)/C(C#N)=C1/C=CN(C)C=N1
cytotoxicity call [1]: inactive | cytotoxicity call [2]: active | growth inhibition call [3]: inactive

Cc1ccc(S(=O)(=O)N(C)C[C@H]2Oc3ccc(NS(=O)(=O)c4cccs4)cc3CC(=O)N([C@@H](C)CO)C[C@H]2C)cc1
cytotoxicity call [1]: inactive | cytotoxicity call [2]: inactive | growth inhibition call [3]: inactive

Cc1ccc(S(=O)(=O)N(C)C[C@@H]2Oc3ccc(NS(=O)(=O)c4c(C)noc4C)cc3C(=O)N([C@H](C)CO)C[C@@H]2C)cc1
cytotoxicity call [1]: inactive | cytotoxicity call [2]: inactive | growth inhibition call [3]: inactive

C[C@@H]1CCCCO[C@@H](CN(C)CC2CCCCC2)[C@@H](C)CN([C@H](C)CO)C(=O)c2cc(NS(=O)(=O)c3cccs3)ccc2O1
cytotoxicity call [1]: inactive | cytotoxicity call [2]: inactive | growth inhibition call [3]: inactive

O=C(NO)c1ccc(C(=O)N/N=C/[C@H](O)[C@@H](O)[C@H](O)[C@H](O)CO)cc1
cytotoxicity call [1]: inactive | cytotoxicity call [2]: inactive | growth inhibition call [3]: inactive

COc1ccc(CN(C)C[C@H]2OCCCC[C@@H](C)Oc3ccc(NS(=O)(=O)c4ccc(Cl)cc4)cc3C(=O)N([C@H](C)CO)C[C@H]2C)cc1
cytotoxicity call [1]: inactive | cytotoxicity call [2]: inactive | growth inhibition call [3]: inactive

C[C@@H]1CCCCO[C@H](CN(C)S(=O)(=O)c2cn(C)cn2)[C@@H](C)CN([C@H](C)CO)C(=O)c2cc(NC(=O)Nc3ccc(C(F)(F)F)cc3)ccc2O1
cytotoxicity call [1]: inactive | cytotoxicity call [2]: inactive | growth inhibition call [3]: inactive

CC(C)NC(=O)N(C)C[C@@H]1OCCCC[C@@H](C)Oc2ccc(NS(=O)(=O)c3cn(C)cn3)cc2C(=O)N([C@H](C)CO)C[C@@H]1C
cytotoxicity call [1]: inactive | cytotoxicity call [2]: inactive | growth inhibition call [3]: inactive

C=C(C)C1CC=C(C)CC1 (centres undefined)
cytotoxicity call [1]: inactive | cytotoxicity call [2]: inactive | growth inhibition call [3]: inactive

C[C@@H]1CN([C@@H](C)CO)C(=O)c2cc(NC(=O)C3CCCCC3)ccc2O[C@@H](C)CCCCO[C@H]1CN(C)Cc1ccc2c(c1)OCO2
cytotoxicity call [1]: inactive | cytotoxicity call [2]: inactive | growth inhibition call [3]: inactive

C[C@H](CO)N1C[C@H](C)[C@@H](CN(C)Cc2ccc(Cl)c(Cl)c2)Oc2ccc(NS(=O)(=O)c3ccc(Cl)cc3)cc2CC1=O
cytotoxicity call [1]: inactive | cytotoxicity call [2]: inactive | growth inhibition call [3]: inactive

NC(=O)C[C@H](N)C(=O)O
cytotoxicity call [1]: inactive | cytotoxicity call [2]: inactive | growth inhibition call [3]: inactive

CO[C@H]1O[C@H](CO)[C@@H](OC(=O)Nc2ccccc2-c2ccccc2)[C@H](OC(=O)Nc2ccccc2)[C@@H]1OC(=O)Nc1ccccc1
cytotoxicity call [1]: inactive | cytotoxicity call [2]: active | growth inhibition call [3]: inactive

C[C@H](CO)N1C[C@H](C)[C@H](CN(C)Cc2ccccc2)Oc2cc(C#Cc3ccccn3)ccc2S1(=O)=O
cytotoxicity call [1]: inactive | cytotoxicity call [2]: inactive | growth inhibition call [3]: inactive

CCCC#Cc1ccc2c(c1)O[C@@H](CN(C)S(=O)(=O)c1cccc(F)c1)[C@@H](C)CN([C@@H](C)CO)S2(=O)=O
cytotoxicity call [1]: inactive | cytotoxicity call [2]: inactive | growth inhibition call [3]: inactive

CC(C)(C)NC[C@@H](O)c1ccc(O)c(CO)c1.CC(C)(C)NC[C@@H](O)c1ccc(O)c(CO)c1.O=S(=O)(O)O
cytotoxicity call [1]: inactive | cytotoxicity call [2]: inactive | growth inhibition call [3]: inactive
